Laboratory results reported in PubChem BioAssay (Tox21).
Values joined by “and” are separate entries in the source; they are usually repeats but may differ in a detail not shown here. Equal entries are not always repeated. Inconclusive means that the source gave no clear call. Such entries were picked first, then a sample of the others. Potencies of inconclusive entries are doubtful fits and often do not repeat. A structure can be active in one record and inactive in another. Active and inactive are the calls of the source. Calls come from the whole dose curve; as a rule, active = well fitted cell-killing curve with a large enough effect in the repeat runs; inconclusive = weak or mixed curves, or effect the other way; inactive = flat fitted curve, though single readings scatter.

What was measured:
[1] = cAMP Responsive Elements (CRE) small molecule antagonists, cell-based qHTS assay: qHTS cell viability counter screen (AID 2060913); note: nearly all actives have a fitted effect of over 40% in size
Method in brief: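 CRE-bla HEK293T cells were seeded in assay medium with 10% dialyzed FBS, incubated 18 hrs at 37 C, then exposed to compounds plus 0.25 uM final NKH477 for 3 hrs. Viability was read by CellTiter-Glo luminescence after 30 min, in the same wells.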

[2] = cAMP Responsive Elements (CRE) small molecule agonists, cell-based qHTS assay: qHTS cell viability counter screen (AID 2060914); note: nearly all actives have a fitted effect of over 50% in size
Method in brief: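 In the same wells as the reporter read, viability of CRE-bla HEK 293T cells was quantified by CellTiter-Glo luminescence after a 3 h compound exposure.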
Potency is the fitted concentration of half-maximal effect; tags give direction and shape of the fitted curve.

Row | Compound | Potency [1] | Potency [2]
1 | CC/C(=C(\c1ccccc1)c1ccc(OCCN(C)C)cc1)c1ccccc1 | inconclusive: 29.8 µM [cytotoxic] | inconclusive: 68.5 µM [cytotoxic, single point] and inconclusive: 61.6 µM [cytotoxic, single point] and inconclusive: 68.6 µM [cytotoxic, single point]
2 | C=CC(=O)OCCOCCOC(=O)C=C | inconclusive: 30.8 µM [rising, partial curve, poor fit] | inconclusive: 34.5 µM [rising, partial curve]
3 | S=c1nc[nH]c2nc[nH]c12 | inconclusive: 6.69 µM [cytotoxic, partial curve] and inconclusive: 10.6 µM [cytotoxic, partial curve, poor fit] | inconclusive: 2.66 µM [cytotoxic, full curve] and inconclusive: 9.44 µM [cytotoxic, partial curve]
4 | CC(CCl)OC(C)CCl (stereo not given) | inconclusive: 0.0017 µM [cytotoxic, full curve, poor fit] | inactive
5 | CCCCCCCCCCCCCCCCCCNC(=O)OC1CCN(C(=O)OC[C@H](COC(=O)N(Cc2cccc[n+]2CC)C(=O)c2ccccc2OC)OC)CC1 | inconclusive: 29.8 µM [cytotoxic] | inconclusive: 26.6 µM [cytotoxic, partial curve]
6 | Oc1ccc(Cl)cc1Cc1cc(Cl)ccc1O | inconclusive: 27.8 µM [cytotoxic, partial curve] and active: 50.8 µM and inconclusive: 33.5 µM [cytotoxic, partial curve, poor fit] | inconclusive: 0.193 µM [cytotoxic, full curve, poor fit]
7 | CNc1ccc(O)cc1 | inconclusive: 68.5 µM [cytotoxic, partial curve, poor fit] | inconclusive: 1.37 µM [cytotoxic, single point]
8 | COc1ccc(S(=O)(=O)N2C(=O)[C@@](c3ccccc3OC)(N3C[C@H](O)C[C@H]3C(=O)N(C)C)c3cc(Cl)ccc32)c(OC)c1 | inconclusive: 68.6 µM [cytotoxic, single point] | inconclusive: 68.6 µM [cytotoxic, single point]
9 | c1ccc(Nc2cccc3ccccc23)cc1 | inconclusive: 61.9 µM [cytotoxic] and inconclusive: 57 µM [cytotoxic, single point] | inconclusive: 49.2 µM [cytotoxic, partial curve, poor fit] and inconclusive: 68.6 µM [cytotoxic, partial curve, poor fit]
10 | O=c1c(-c2ccccc2)c1-c1ccccc1 | inconclusive: 15 µM [rising, partial curve] | inconclusive: 7.5 µM [rising, partial curve, poor fit]
11 | CCN(CC)CCOc1ccc(Cc2ccccc2)cc1 |  | inconclusive: 33.5 µM [cytotoxic, partial curve, poor fit]
12 | O=C(O)CCSSCCC(=O)O |  | inactive
13 | CC(C)(C)c1ccc(C(=O)CCCN2CCC(OC(c3ccccc3)c3ccccc3)CC2)cc1 |  | inconclusive: 33.5 µM [cytotoxic, single point]
14 | CCNC(=O)NCc1cccc(Cl)c1 |  | inactive
15 | CCCCCCCCCCn1cc[n+](CCCCCCCCCC)c1C |  | active: 48.6 µM
16 | CC(=O)[C@H]1[C@H](C#N)C[C@H]2[C@@H]3CC=C4C[C@@H](O)CC[C@]4(C)[C@H]3CC[C@@]21C |  | inactive
17 | Cc1ccc(S(=O)(=O)NC(=O)NC2CCCCC2)cc1 |  | inconclusive: 11.9 µM [cytotoxic, single point]
18 | Oc1ccc(Cl)cc1Sc1cc(Cl)ccc1O |  | inconclusive: 27.3 µM [cytotoxic, partial curve] and inconclusive: 9.44 µM [cytotoxic, full curve, poor fit]
19 | O=[N+]([O-])c1ccc(/C=C/c2ccc([N+](=O)[O-])cc2S(=O)(=O)O)c(S(=O)(=O)O)c1 |  | inactive
20 | O=c1[nH]nnc2ccccc12 |  | inconclusive: 0.251 µM [cytotoxic, full curve, poor fit]
